From article PMC4893733
Changes are numbered by the printed parent chain. These are yes or no findings as the source states them, for the method shown. For some assays here: Binding seen in cells or lysates may run through a third protein. Some binding calls cover weakened binding; strength is not graded here. For some assays here: Where a sequence is shown, tags or fusion partners need not be part of it.

Chains of the proteins cited; added tags and fusions are not shown.
UniProt A0A1D8PI78: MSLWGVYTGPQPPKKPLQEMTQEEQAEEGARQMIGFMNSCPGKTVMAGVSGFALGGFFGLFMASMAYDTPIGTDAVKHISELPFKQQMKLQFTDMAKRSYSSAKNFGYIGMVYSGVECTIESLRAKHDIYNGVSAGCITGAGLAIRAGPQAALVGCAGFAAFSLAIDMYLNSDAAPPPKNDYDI

Key:
[1] = target: T1, C. albicans Mia40 (C. albicans (endogenous in isolated mitochondria)) (UniProt O94030); experiment: Mia40-linked import intermediate on non-reducing SDS-PAGE with autoradiography; radiolabeled precursor from reticulocyte lysate incubated with mitochondria isolated from wildtype S. cerevisiae or C. albicans, 25 °C or 30 °C in import buffer; samples analysed under non-reducing conditions
T1 sequence: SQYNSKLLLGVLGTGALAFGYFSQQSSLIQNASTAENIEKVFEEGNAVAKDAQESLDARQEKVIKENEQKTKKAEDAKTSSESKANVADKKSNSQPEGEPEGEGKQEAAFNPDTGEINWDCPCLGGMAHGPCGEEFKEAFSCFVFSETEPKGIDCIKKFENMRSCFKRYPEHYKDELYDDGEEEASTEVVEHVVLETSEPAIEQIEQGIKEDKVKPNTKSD

[2] = target: T2, S. cerevisiae Mia40 (S. cerevisiae (endogenous in isolated mitochondria)) (UniProt P36046); experiment: as above
T2 sequence: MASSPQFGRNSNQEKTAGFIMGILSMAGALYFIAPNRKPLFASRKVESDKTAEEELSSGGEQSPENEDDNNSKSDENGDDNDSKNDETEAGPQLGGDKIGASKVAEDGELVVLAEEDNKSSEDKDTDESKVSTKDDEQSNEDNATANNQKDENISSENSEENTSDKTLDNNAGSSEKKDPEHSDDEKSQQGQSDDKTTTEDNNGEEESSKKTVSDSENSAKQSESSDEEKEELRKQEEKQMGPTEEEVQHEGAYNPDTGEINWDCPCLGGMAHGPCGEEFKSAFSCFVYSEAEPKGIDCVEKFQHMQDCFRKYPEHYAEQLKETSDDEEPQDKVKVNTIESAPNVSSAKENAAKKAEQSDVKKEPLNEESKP

[3] = target: T3, His-tagged human TIMM22 wildtype (human) (UniProt Q9Y584); experiment: pull-down; affinity purification via HisTIMM22 on Ni-NTA from HEK293 cells solubilised in 1% digitonin, 20 mM Tris-HCl pH 7.4, 100 mM NaCl, 20 mM imidazole, 50 mM IAA; 1 h at 4 °C; eluted with 400 mM imidazole; Western blot
T3 sequence: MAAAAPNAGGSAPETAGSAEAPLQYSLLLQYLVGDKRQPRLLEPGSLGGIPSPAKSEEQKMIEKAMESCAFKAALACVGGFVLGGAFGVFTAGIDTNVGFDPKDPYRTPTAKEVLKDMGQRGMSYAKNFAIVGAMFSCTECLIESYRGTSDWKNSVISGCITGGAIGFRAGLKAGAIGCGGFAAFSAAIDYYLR

[4] = target: T4, His-tagged human TIMM22-C160S (human) (UniProt Q9Y584); experiment: as above
T4 sequence: T3 sequence with C160S

[5] = target: T5, His-tagged human TIMM22-C138S (human) (UniProt Q9Y584); experiment: as above
T5 sequence: T3 sequence with C138S

Molecule: C. albicans Tim22, radiolabeled precursor (from UniProt A0A1D8PI78 1-184)
- binding [1]: binds

B1: S. cerevisiae Tim9, radiolabeled precursor (protein, UniProt O74700 1-87)
chain: MDALNSKEQQEFQKVVEQKQMKDFMRLYSNLVERCFTDCVNDFTTSKLTNKEQTCIMKCSEKFLKHSERVGQRFQEQNAALGQGLGR
modifications: radiolabeled with [35S]methionine
- binding [2]: binds

B2: native human TIMM22 (protein, UniProt Q9Y584 1-194)
chain: T3 sequence
- binding [3]: binds
- binding [4]: no binding
- binding [5]: binds
